Test results from PubChem BioAssay AID504332 (National Center for Advancing Translational Sciences (NCATS), 2011).
Several values for one entry are separate records, joined by “and”; a condition that tells them apart may be missing. Equal entries are not always repeated. In all, about 350,000 compounds went through this assay and about 31,000 (8.9%) were called active. This list was built around the results that the source calls inconclusive (neither active nor inactive); the mix of calls is not that of the screen. Calls come from the whole dose curve; as a rule, active = well fitted inhibition curve with a large enough effect; inconclusive = small, poorly fitted or top-dose-only effect; inactive = no such curve, though single readings can be large or run the other way. Potencies beside an inconclusive call are fits to weak or partial responses and may not hold up.

Target: Histone-lysine N-methyltransferase EHMT2 (Homo sapiens) (UniProt Q96KQ7)
UniProt Q96KQ7, sequence (Q96KQ7 whole entry, looked up): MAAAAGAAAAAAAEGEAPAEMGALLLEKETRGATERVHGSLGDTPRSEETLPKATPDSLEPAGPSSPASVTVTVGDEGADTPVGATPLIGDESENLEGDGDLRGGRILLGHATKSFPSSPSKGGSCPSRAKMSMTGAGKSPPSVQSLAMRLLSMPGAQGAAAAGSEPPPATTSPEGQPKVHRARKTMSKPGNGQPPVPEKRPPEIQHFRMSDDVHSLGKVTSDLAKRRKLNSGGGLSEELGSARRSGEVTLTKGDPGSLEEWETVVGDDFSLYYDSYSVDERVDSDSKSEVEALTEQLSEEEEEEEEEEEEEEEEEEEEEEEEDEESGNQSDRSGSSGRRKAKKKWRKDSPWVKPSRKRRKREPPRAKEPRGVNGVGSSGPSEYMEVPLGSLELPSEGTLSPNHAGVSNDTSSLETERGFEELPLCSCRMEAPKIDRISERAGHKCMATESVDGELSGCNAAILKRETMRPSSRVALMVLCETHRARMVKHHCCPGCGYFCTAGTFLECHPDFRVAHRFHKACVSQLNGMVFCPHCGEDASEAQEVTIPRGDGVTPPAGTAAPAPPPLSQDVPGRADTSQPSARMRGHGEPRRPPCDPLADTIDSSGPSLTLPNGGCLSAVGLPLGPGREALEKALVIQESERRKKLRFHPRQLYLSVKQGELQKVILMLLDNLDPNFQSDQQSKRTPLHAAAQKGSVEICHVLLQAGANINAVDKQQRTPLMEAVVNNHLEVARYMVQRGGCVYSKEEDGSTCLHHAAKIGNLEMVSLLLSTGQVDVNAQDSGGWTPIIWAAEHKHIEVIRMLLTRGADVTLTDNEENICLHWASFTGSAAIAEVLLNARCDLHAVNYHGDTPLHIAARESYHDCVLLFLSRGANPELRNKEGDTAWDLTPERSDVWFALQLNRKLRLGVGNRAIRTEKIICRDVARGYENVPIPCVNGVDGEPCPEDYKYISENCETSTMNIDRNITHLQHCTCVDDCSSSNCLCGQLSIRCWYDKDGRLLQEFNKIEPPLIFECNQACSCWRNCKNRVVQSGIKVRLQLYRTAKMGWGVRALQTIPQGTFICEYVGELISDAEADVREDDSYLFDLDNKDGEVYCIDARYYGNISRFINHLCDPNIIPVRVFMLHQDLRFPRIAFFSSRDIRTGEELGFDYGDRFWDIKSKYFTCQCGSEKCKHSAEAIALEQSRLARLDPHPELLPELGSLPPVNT
Test: qHTS Assay for Inhibitors of Histone Lysine Methyltransferase G9a; note: nearly all actives have a fitted effect of over 75% in size
Conditions: G9a H3K9 monomethylation, AlphaScreen, 2 h; activity, negative = inhibition: at 59 µM (top of the series) unless noted
Procedure, shortened: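 AlphaScreen detection with an anti-monomethyl H3K9 antibody quantified product after a 2 h room-temperature reaction containing 500 nM biotinylated H3K9 peptide, 20 µM SAM and 20 nM enzyme, which had been preincubated 15 min with compound.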
% is set by controls: 0 for no effect and ±100 for the full control effect; potency is the fitted concentration of half-maximal effect; tags give direction and shape of the fitted curve.

Structure (SMILES) | Potency | activity, negative = inhibition
CN1CCN(CC#CCC(O)(c2ccccc2)c2ccccc2)CC1 | active: 70.8 µM | 
Cc1ccc(S(=O)(=O)/N=S(\C)CC2CC2(Cl)Cl)cc1 (stereo not drawn) | inactive | 
C/C(=N\NC(=S)Nc1ccc(F)cc1)C1CC1 | inconclusive: 5.62 µM [inhibitor, partial curve, poor fit] | 
CCOc1ccc2cc(C#N)c(SCC(=O)N3CCC(C)CC3)nc2c1 | inconclusive: 28.2 µM [inhibitor, single point] | 
CN(C)S(=O)(=O)c1cccc(NC(=O)c2cc3c(cc2Cl)N2CCCCCC2=NS3(=O)=O)c1 | inactive | 
O=c1c(C/C=C/c2ccccc2)c(O)ccn1CCc1c[nH]c2ccccc12 | inconclusive: 44.7 µM [inhibitor, partial curve] | 
OCCNCCCCOc1ccc(F)cc1 | inactive | 
C=CCNC(=O)c1ccc(NC(=O)C2=CSCCO2)cc1 | inactive | 
COc1ccc(C)cc1NC(=O)C1CCCN1S(=O)(=O)c1ccc2c(c1)CCC(=O)N2 (stereo not drawn) | inconclusive: 50.1 µM [inhibitor, partial curve, poor fit] | 
O=C(Nc1nnc(SCC(=O)N2CCOCC2)s1)C1CC(=O)N(c2ccccc2)C1 (stereo not drawn) | inactive | 
O=[N+]([O-])c1ccc(Cl)c(/C=N/N2CCN(Cc3ccccc3Cl)CC2)c1 | active: 44.7 µM | 
COc1ccc(CNC(=O)C(C)NCc2ccccc2Cl)cc1 (stereo not drawn) | inconclusive: 89.1 µM [inhibitor, single point] | 
COc1ccccc1NS(=O)(=O)c1cc(NC(=O)c2cccs2)ccc1N1CCCC1 | active: 1.58 µM | 
Cc1cc(C)nc(-n2nc(C)c(C3(O)C(=O)Nc4ccccc43)c2N)n1 (stereo not drawn) | inconclusive: 89.1 µM [inhibitor, single point] | 
CCOC(=O)N1CCC(NC(=O)c2ccc(CS(=O)(=O)c3c(Cl)cccc3Cl)o2)CC1 | inconclusive: 79.4 µM [inhibitor, single point] | 
S=c1[nH]nc(CN2CCCC2)n1Cc1ccccc1 | active: 50.1 µM | 
COc1cc(OC)c(NC(=O)CS(=O)(=O)Cc2nc(-c3ccc(C)cc3)oc2C)cc1Cl | inconclusive: 4.47 µM [inhibitor, full curve, poor fit] | 
COc1ccc(OC)c(C2C(C(C)=O)=C(O)C(=O)N2Cc2cccnc2)c1 (stereo not drawn) | inconclusive: 22.4 µM [inhibitor, single point] | 
CCOC(=O)/C=C1\SCC(=O)N1CC(=O)Nc1ccc(C(C)C)cc1 | inconclusive: 79.4 µM [inhibitor, single point] | 
NCc1ccc2[nH]c(=O)[nH]c2c1 | inconclusive: 39.8 µM [inhibitor, partial curve, poor fit] | 
O=C(Cn1c(-c2cccs2)cc2ccccc21)NCCCN1CCN(c2cccc(Cl)c2)CC1 | inconclusive: 8.91 µM [inhibitor, partial curve] | 
O=[n+]1c2c(n([O-])c3c1CCCC3)CCCC2 | inactive | 
Cn1c(=O)[nH]c(NC2CCCCC2)c([N+](=O)[O-])c1=O | inactive | 

Structure (SMILES) | Potency | activity, negative = inhibition
COc1cc(Cl)c(C)cc1NC(=O)c1c(C)oc2nc(C)nc(N3CCCC3)c12 | inconclusive: 11.2 µM [inhibitor, partial curve] | 
Cc1cc(Cl)ccc1N(CC(=O)N=Nc1c(O)[nH]c2ccccc12)S(C)(=O)=O | inconclusive: 56.2 µM [inhibitor, partial curve, poor fit] | 
Cc1noc(-c2ccc(N3CCCCC3C)c([N+](=O)[O-])c2)n1 (stereo not drawn) | inconclusive: 17.8 µM [inhibitor, single point] | 
O=C(c1ccccc1F)N1CCN(c2ccc([N+](=O)[O-])c(NCC3CCCO3)c2)CC1 (stereo not drawn) | inactive | 
Cc1ccc(-n2cccc2/C=C2/C(=N)N3C(=NC2=O)SN=C3S(C)(=O)=O)cc1 | active: 39.8 µM | 
Cc1cc(C)cc(NS(=O)(=O)c2ccc3[nH]cc(C(=O)N4CCCCC4)c(=O)c3c2)c1 | inconclusive: 28.2 µM [inhibitor, partial curve, poor fit] | 
O=C(Nc1ccc(-c2nnn(CC(=O)N3CCN(C(=O)c4ccco4)CC3)n2)cc1)c1ccccc1F | active: 56.2 µM | 
O=C(CCCCCNc1nc(=S)[nH]c2ccccc12)N1CCN(c2ccccn2)CC1 | inconclusive: 20 µM [inhibitor, single point] | 
COc1cc(CN2CCN(c3cccc(Cl)c3)CC2)cc(OC)c1OC | active: 12.6 µM | 
O=C(O)CCC(=O)Nc1ccccc1C(=O)NCc1ccco1 | inconclusive: 25.1 µM [inhibitor, single point] | 
C=CCc1ccccc1OCC(O)CN(CC)CC (stereo not drawn) | inconclusive: 12.6 µM [inhibitor, partial curve, poor fit] | 
COCCSc1ccccc1C(=O)N1CCN(Cc2ccccc2)CC1 | inconclusive: 50.1 µM [inhibitor, partial curve] | 
COCCNC(=O)c1ccc2c(=O)n(CCCN3CCCC3=O)c(=S)[nH]c2c1 | inconclusive: 28.2 µM [inhibitor, single point] | 
COC(=O)Cc1ccc(NC(=S)NNC(=O)c2ccccc2Br)cc1 | inconclusive: 10 µM [inhibitor, partial curve, poor fit] | 
CN(CCCCCNC(=O)/C=N/O)Cc1ccccc1 | inconclusive: 10 µM [inhibitor, partial curve] | 
Cc1cc(OCCCCCN2CCCC2)ccc1Cl | active: 10 µM | 
O=C(CSc1ncc(-c2ccccc2)[nH]1)Nc1ccccc1F | inconclusive: 89.1 µM [inhibitor, single point] | 
CN(CC(=O)Nc1cccc(F)c1)C(=O)CSc1nc2ccccc2s1 | inconclusive: 31.6 µM [inhibitor, single point] | 
Cc1ccc(S(=O)(=O)N2Cc3ccccc3CC2C(=O)NC(C)(C)C)cc1 (stereo not drawn) | inactive | 
O=C(c1ccc(-c2cccc(C(F)(F)F)c2)o1)N1CCCCCCC1 | active: 50.1 µM | 
O=C(Nc1ccc(S(=O)(=O)NC2=NCCCCC2)cc1)c1cc(F)c(F)cc1Cl | inconclusive: 79.4 µM [inhibitor, partial curve, poor fit] | 
CS(=O)(=O)c1ncc(Cl)c(C(=O)N(Cc2ccc(Cl)cc2)Cc2ccco2)n1 | active: 11.2 µM | 
CCCCCCS(=O)[C@H]1CS(=O)(=O)C[C@@H]1S(=O)CCCCCC (stereo partly drawn) | active: 8.91 µM | 

Structure (SMILES) | Potency | activity, negative = inhibition
CCSc1nc(N2CCOCC2)c2c(c1C#N)CC(C)(C)N(C)C2 |  | inactive: 18.7% [at 12.7 µM]
Cc1cccc(OCC(=O)Nc2nnc(S(=O)(=O)N3CCCCCC3)s2)c1 | inconclusive: 79.4 µM [inhibitor, single point] | 
S=c1[nH]nc(COc2ccc3ccccc3c2)o1 | active: 0.891 µM | 
COc1ccc(/C=C/C(=O)c2c(O)c(OC)c3occc3c2OC)cc1 | inconclusive: 3.16 µM [inhibitor, full curve] | 
CCOc1ccccc1CNC(=O)c1ccc2c(c1)N(CC)CCS2 | inconclusive: 20 µM [inhibitor, partial curve, poor fit] and inconclusive: 316 nM [inhibitor, partial curve, poor fit] | 
Cc1ccccc1C(=O)N1CCN(c2ccc(NC(=S)NC(=O)c3cccs3)cc2)CC1 | inconclusive: 20 µM [inhibitor, full curve] | 
CC1C(C#N)=C(N)OC2=C1C(=O)CCC2 (stereo not drawn) | inconclusive: 89.1 µM [inhibitor, single point] | 
Cc1cccc(NS(=O)(=O)c2ccc(C)c(C(=O)NCC(c3ccccc3)N(C)C)c2)c1 (stereo not drawn) | inconclusive: 7.94 µM [inhibitor, single point] | 
COc1ccc(CCNC(=O)c2cc(C)oc2C)cc1OC | inconclusive: 7.94 µM [inhibitor, full curve] | 
COc1cc(NS(=O)(=O)c2ccc(NC(=O)c3ccc(S(=O)(=O)N4CCCC4)cc3)cc2)ncn1 | inactive | 
CC(=O)N1C(=S)NC(=O)/C1=C1/C(=O)N(CC(=O)Nc2cccc(C)c2)c2ccccc21 | inconclusive: 22.4 µM [inhibitor, partial curve, poor fit] | 
COc1ccc(/C(N)=N/OC(=O)C2CCC(=O)N2S(=O)(=O)c2ccc(C)cc2)cc1 (stereo not drawn) | inactive | 
CN(C)CCCNc1ccc(-c2n[nH]c(=O)c3ccccc23)cc1[N+](=O)[O-] | inconclusive: 89.1 µM [inhibitor, single point] | 
COc1cccc(CNC(=O)CC2C(=O)NCCN2CCCc2ccccc2)c1 (stereo not drawn) | active: 50.1 µM | 
CC[n+]1c(/C=C2\Sc3ccccc3N2C)ccc2cccc(C)c21 | active: 25.1 µM | 
CCN1C(=O)[C@@H]2[C@@H](c3ccc(-c4ccc(C(C)=O)cc4)c(OC)c3)N3CCCC[C@@]3(C(=O)OC)[C@@H]2C1=O |  | inactive: 15.1% [at 2.33 µM]
O=C(O)CCc1ccc(-c2cccs2)n1NC(=O)c1ccc(Cl)cc1Cl | active: 56.2 µM | 
O=C(CN1C(=O)NC2(CCCCCCC2)C1=O)N1CCN(C(=O)c2ccco2)CC1 | inconclusive: 89.1 µM [inhibitor, single point] | 
C=CCN(CC=C)C(=O)c1cccc(OC2CCN(S(=O)(=O)N(C)C)CC2)c1 | inconclusive: 89.1 µM [inhibitor, single point] | 
Cc1ccc(N2CCN(Cc3ccccc3)CC2=O)c(C)c1 | inconclusive: 5.62 µM [inhibitor, full curve, poor fit] | 
N#CCCN1CCN(S(=O)(=O)c2ccc(S(=O)(=O)NC3CCCCC3)cc2)CC1 | inconclusive: 79.4 µM [inhibitor, single point] | 
O=C(c1cccs1)N1CCC(N2CCN(c3ccccc3)CC2)CC1 | active: 14.1 µM | 
